The list shows a part of the results. Many values rest on one well or one pass, so single values are uncertain.
Tests used:
Assay in all cases: cell count relative to DMSO control; melanoma cells; higher = more viable cells
Conditions in all cases: library dose: low library concentration; 72 h
[1] = tested on: MZ2-MEL
[2] = tested on: MeWo
[3] = tested on: RPMI7951
[4] = tested on: RVH-421
[5] = tested on: SkMel28
[6] = tested on: SkMel30
[7] = tested on: SkMel5
[8] = tested on: UACC257
[9] = tested on: UACC62
[10] = tested on: WM115
[11] = tested on: WM1716
[12] = tested on: WM1745
[13] = tested on: WM3526
[14] = tested on: WM3619
[15] = tested on: WM451Lu
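Note: cell number obtained by counting DAPI-stained nuclei in high-throughput microscope images with image analysis software, screen run in 1,536-well plates.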

Row | SMILES | cell count [1] [%] | cell count [2] [%] | cell count [3] [%] | cell count [4] [%] | cell count [5] [%] | cell count [6] [%] | cell count [7] [%] | cell count [8] [%] | cell count [9] [%] | cell count [10] [%] | cell count [11] [%] | cell count [12] [%] | cell count [13] [%] | cell count [14] [%] | cell count [15] [%]
1 | O=C(O)c1ccc(-c2c[nH]c3ncc(-c4ccccc4)cc23)cc1C1CCCC1 + COc1ccc(COc2ccc(Cc3cnc(N)nc3N)cc2OC)cc1 [GW2580] (first compound 0.16 µM, partner dose 1 µM) | 92.5 | 95.6 | 93.4 | 107 | 94.2 | 99.7 | 94.1 | 107 | 99.2 | 103 | 84 | 88.9 | 93.6 | 96.6 | 84.5
2 | CC1(C)NC(=O)N(c2ccc([N+](=O)[O-])c(C(F)(F)F)c2)C1=O [nilutamide] + O=c1cc(-c2cccc3c2Sc2ccccc2S3)oc(N2CCOCC2)c1 [KU55933] (first compound 1 µM, partner dose 1 µM) | 98.5 | 92.2 | 104 | 123 | 107 | 123 | 103 | 103 | 107 | 107 | 97.4 | 101 | 119 | 88.9 | 128
3 | CC1(C)NC(=O)N(c2ccc([N+](=O)[O-])c(C(F)(F)F)c2)C1=O [nilutamide] + N#Cc1c(O)c2c(-c3ccc(-c4ccccc4O)cc3)csc2[nH]c1=O [A769662] (first compound 1 µM, partner dose 2 µM) | 111 | 105 | 113 | 82.8 | 69.1 | 102 | 92.2 | 84.7 | 116 | 103 | 76.9 | 96.2 | 102 | 120 | 108
4 | C[C@@H]1CCN(C(=O)CC#N)C[C@@H]1N(C)c1ncnc2[nH]ccc12 + O=S(=O)(c1ccccc1)N(CC(F)(F)F)c1ccc(C(O)(C(F)(F)F)C(F)(F)F)cc1 [T0901317] (first compound 1 µM, partner dose 1.4 µM) | 98 | 89.7 | 102 | 93.8 | 85.4 | 92.6 | 87.1 | 98.7 | 93.4 | 93.3 | 94.1 | 69.6 | 81.3 | 111 | 111
5 | O=C(Nc1cccc(Cl)c1)Nc1ncc(CCNc2ncnc3ccsc23)s1 + Cn1cc(/C=C2\C(=O)Nc3cccnc32)c2ccccc21 [GW441756] (first compound 0.0008 µM, partner dose 0.4 µM) | 100 | 97.6 | 116 | 111 | 87.1 | 122 | 78.8 | 109 | 93.8 | 87.3 | 124 | 96.9 | 112 | 102 | 117
6 | Cn1cncc1[C@@](N)(c1ccc(Cl)cc1)c1ccc2c(c1)c(-c1cccc(Cl)c1)cc(=O)n2C [tipifarnib] + CCCCCCCCCCCC1=C(O)C(=O)C=C(O)C1=O [Embelin] (first compound 0.01 µM, partner dose 1.2 µM) | 98.3 | 111 | 96.8 | 74.8 | 90.3 | 85.7 | 106 | 99.1 | 77.6 | 99.9 | 84.7 | 103 | 84.4 | 115 | 99.7
7 | COc1cc(Nc2ncc(F)c(Nc3ccc4c(n3)NC(=O)C(C)(C)O4)n2)cc(OC)c1OC [Tamatinib] + COc1ccc(-c2ccc3c(N4CCOCC4)nc(N4C[C@@H](C)O[C@@H](C)C4)nc3n2)cc1CO [KU0063794] (first compound 0.4 µM, partner dose 0.02 µM) | 89.4 | 76.5 | 86.9 | 80.8 | 67.5 | 70 | 82.3 | 61.2 | 77.4 | 86.6 | 87.4 | 65.4 | 80.7 | 88.4 | 86.5
8 | CC1(C)NC(=O)N(c2ccc([N+](=O)[O-])c(C(F)(F)F)c2)C1=O [nilutamide] + c1cc(-c2cnn3cc(-c4ccc(OCCN5CCCCC5)cc4)cnc23)ccn1 [Dorsomorphin] (first compound 1 µM, partner dose 0.4 µM) | 97 | 97.8 | 98.3 | 110 | 75.3 | 100 | 85.8 | 90.5 | 101 | 98.8 | 95.9 | 92.4 | 112 | 101 | 91.4
9 | O=C(Nc1cccc(Cl)c1)Nc1ncc(CCNc2ncnc3ccsc23)s1 + O=C(O)C(=O)Nc1sc2c(c1C(=O)O)CCNC2 [TCS401] (first compound 0.0008 µM, partner dose 1.66667 µM) | 103 | 94.9 | 126 | 85.9 | 82.9 | 117 | 93.9 | 99.8 | 114 | 70.3 | 104 | 87.3 | 90.4 | 101 | 101
10 | COc1cc(Nc2ncc(F)c(Nc3ccc4c(n3)NC(=O)C(C)(C)O4)n2)cc(OC)c1OC [Tamatinib] + Oc1cc(-c2nc(-c3ccccc3)[nH]c2-c2ccncc2)ccc1Cl [L779450] (first compound 0.4 µM, partner dose 0.2 µM) | 79.6 | 93.4 | 65.5 | 80.2 | 53.1 | 88.8 | 80.9 | 71.1 | 65.8 | 65.4 | 101 | 47.2 | 58.4 | 108 | 97
11 | Cn1cncc1[C@@](N)(c1ccc(Cl)cc1)c1ccc2c(c1)c(-c1cccc(Cl)c1)cc(=O)n2C [tipifarnib] + CCN(CC)CCCCNc1ncc2cc(-c3cc(OC)cc(OC)c3)c(NC(=O)NC(C)(C)C)nc2n1 [PD173074] (first compound 0.01 µM, partner dose 0.1 µM) | 101 | 99.4 | 95.4 | 75.7 | 85.1 | 82.8 | 126 | 55.2 | 87.7 | 96.1 | 84.9 | 97 | 92.1 | 103 | 95.4
12 | O=C(Nc1cccc(Cl)c1)Nc1ncc(CCNc2ncnc3ccsc23)s1 + COc1cc2ncnc(Nc3ccc(Oc4ccccc4)cc3)c2cc1OC [SrcI1] (first compound 0.0008 µM, partner dose 2 µM) | 87.5 | 93.6 | 72.2 | 98.6 | 80.7 | 95.5 | 101 | 103 | 95.6 | 77.1 | 119 | 79.2 | 108 | 144 | 106
13 | CC1(C)NC(=O)N(c2ccc([N+](=O)[O-])c(C(F)(F)F)c2)C1=O [nilutamide] + O=C1NC(=O)/C(=C/c2ccc(-c3ccc(F)cc3O)o2)S1 [AS252424] (first compound 1 µM, partner dose 1 µM) | 96.4 | 98.5 | 109 | 121 | 91 | 116 | 97.2 | 74.1 | 80.4 | 97.8 | 102 | 90.6 | 113 | 103 | 103
14 | O=C(O)c1ccc(-c2c[nH]c3ncc(-c4ccccc4)cc23)cc1C1CCCC1 + CCN(CC)CCCCNc1ncc2cc(-c3cc(OC)cc(OC)c3)c(NC(=O)NC(C)(C)C)nc2n1 [PD173074] (first compound 0.16 µM, partner dose 0.1 µM) | 92.4 | 82.3 | 111 | 117 | 90.3 | 110 | 95.2 | 84.7 | 103 | 95.3 | 99.2 | 95.7 | 86.6 | 103 | 95.6
15 | O=C(O)c1ccc(-c2c[nH]c3ncc(-c4ccccc4)cc23)cc1C1CCCC1 + c1cc(-c2cnn3cc(-c4ccc(OCCN5CCCCC5)cc4)cnc23)ccn1 [Dorsomorphin] (first compound 0.16 µM, partner dose 0.4 µM) | 95.2 | 86.6 | 99.9 | 132 | 96.4 | 108 | 93.3 | 90 | 99.9 | 99 | 93.7 | 96.7 | 94.6 | 133 | 103
16 | O=C(Nc1cccc(Cl)c1)Nc1ncc(CCNc2ncnc3ccsc23)s1 + Cc1cc([N+](=O)[O-])ccc1NS(=O)(=O)c1cc(Cl)ccc1Cl [FH535] (first compound 0.0008 µM, partner dose 1 µM) | 98 | 87.1 | 109 | 69.4 | 88.3 | 91.5 | 76.4 | 72.3 | 94.5 | 64.3 | 93.2 | 92.9 | 97.1 | 91.9 | 97.4
17 | O=C(O)c1ccc(-c2c[nH]c3ncc(-c4ccccc4)cc23)cc1C1CCCC1 + Oc1nc(-c2ccc(C(F)(F)F)cc2)nc2c1CSCC2 [XAV939] (first compound 0.16 µM, partner dose 2 µM) | 91.7 | 83.8 | 79.3 | 105 | 80.5 | 105 | 76.5 | 74.8 | 85.1 | 87 | 68.9 | 85.3 | 84 | 81.1 | 99.6
18 | COc1cc(Nc2ncc(F)c(Nc3ccc4c(n3)NC(=O)C(C)(C)O4)n2)cc(OC)c1OC [Tamatinib] + N#Cc1c(O)c2c(-c3ccc(-c4ccccc4O)cc3)csc2[nH]c1=O [A769662] (first compound 0.4 µM, partner dose 2 µM) | 92.5 | 88.9 | 98.4 | 84.4 | 85.2 | 85.1 | 97.7 | 76.7 | 84.2 | 85.8 | 93 | 86.5 | 109 | 103 | 79.7
19 | Cn1cncc1[C@@](N)(c1ccc(Cl)cc1)c1ccc2c(c1)c(-c1cccc(Cl)c1)cc(=O)n2C [tipifarnib] + O=C1NC(=O)/C(=C/c2ccc(-c3ccc(F)cc3O)o2)S1 [AS252424] (first compound 0.01 µM, partner dose 1 µM) | 99.2 | 86.7 | 84.5 | 82.3 | 87.8 | 91.8 | 105 | 71.8 | 79.3 | 98.2 | 81.9 | 111 | 82.8 | 93.9 | 108
20 | C[C@@H]1CCN(C(=O)CC#N)C[C@@H]1N(C)c1ncnc2[nH]ccc12 + c1cc(-c2cnn3cc(-c4ccc(OCCN5CCCCC5)cc4)cnc23)ccn1 [Dorsomorphin] (first compound 1 µM, partner dose 0.4 µM) | 100 | 99.2 | 120 | 129 | 110 | 115 | 96 | 98.2 | 122 | 133 | 118 | 77.3 | 99.8 | 136 | 102
